How the values were obtained:
[1] = test system: A549 cells; assay: ADC tumor cell killing, MTS assay, A549; type: cell-based, human; conditions: 72 h, relative to control 99961.1-MMAE
[2] = test system: HT-29 cells; assay: ADC tumor cell killing, MTS assay, HT-29; type: cell-based, human; conditions: 96 h, relative to control 99961.1-MMAE
[3] = test system: Jeko-1 cells; assay: ADC tumor cell killing, CCK8 assay, Jeko-1; type: cell-based, human; conditions: CCK8, 72 h
[4] = test system: NCI-H1944 cells; assay: ADC tumor cell killing, CCK8 assay, NCI-H1944; type: cell-based, human; conditions: CCK8, 72 h
[5] = test system: A549 tumor cells; assay: ADC internalization efficiency by FACS, A549; type: cell-based, human; conditions: relative to control ADC 99961.1-MMAE
[6] = test system: HT-29 tumor cells; assay: ADC internalization efficiency by FACS, HT-29; type: cell-based, human; conditions: relative to positive control ADC
[7] = test system: A549 tumor; assay: ADC efficacy in mouse model bearing A549 tumor; type: in vivo; conditions: 10 mpk
[8] = test system: NCI-N87 tumor; assay: ADC efficacy in mouse model bearing NCI-N87 tumor; type: in vivo; conditions: for Tumor growth inhibition (TGI): tail vein once a week, 3 administrations
[9] = test system: MDA-MB-231 tumor; assay: ADC efficacy in mouse model bearing MDA-MB-231 tumor; type: in vivo; conditions: for Tumor growth inhibition (TGI): tail vein once a week, 3 administrations
[10] = test system: MDA-MB-468 tumor; assay: ADC efficacy in mouse model bearing MDA-MB-468 tumor; type: in vivo
[11] = test system: Jeko-1 tumor; assay: ADC efficacy in mouse model bearing Jeko-1 tumor; type: in vivo

B1: B31-H3L3-MMAE (conjugate)
heavy: EVQLVESGGGLVQPGGSLRLSCAASGFTFSRYAMSWVRQAPGKGLEWVASISRGGSTYYADSVKGRFTISRDNSKNTLYLQMNSLRAEDTAVYYCASYFGNYDAMDYWGQGTTVTVSS[human IgG1 constant region not listed]
light: DIQMTQSPSSLSASVGDRVTITCRASQDINNYVSWFQQKPGKAPKSLIYRANRLVSGVPSRFSGSGSGTDFTFTISSLQPEDFATYYCLQFDEFPYTFGGGTKLEIKRTVAAPSVFIFPPSDEQLKSGTASVVCLLNNFYPREAKVQWKVDNALQSGNSQESVTEQDSKDSTYSLSSTLTLSKADYEKHKVYACEVTHQGLSSPVTKSFNRGEC
[1]
  killing effect on A549 tumor cells: slightly superior to that of the control 99961.1-MMAE
[2]
  killing effect on HT-29 tumor cells: slightly superior to that of the control 99961.1-MMAE
[3]
  EC50: 0.0382 µM
[4]
  EC50: 0.117 µM
[5]
  internalization rate in A549 cells: comparable to that of the control ADC 99961.1-MMA
[6]
  internalization rate in HT-29 cells: slightly higher than that of the positive control ADC
[7]; BIW*3
  anti-tumor effect relative to positive control ADC: superior to that of the positive control ADC
[7]; tail vein BIW*3, day 27
  Tumor growth inhibition (TGI): 8.75%
[7]; tail vein BIW*3, day 31
  Tumor growth inhibition (TGI): 32.35%
[7]; tail vein BIW*3, day 34
  Tumor growth inhibition (TGI): 40.25%
[7]; tail vein BIW*3, day 38
  Tumor growth inhibition (TGI): 49.82%
[7]; tail vein BIW*3, day 41
  Tumor growth inhibition (TGI): 51.16%
[7]; tail vein BIW*3, day 45
  Tumor growth inhibition (TGI): 47.39%
[7]; tail vein BIW*3, day 48
  Tumor growth inhibition (TGI): 43.98%
[8]; 5 mpk, day 9
  Tumor growth inhibition (TGI): −1.37%
[8]; 5 mpk, day 13
  Tumor growth inhibition (TGI): 50.63%
[8]; 5 mpk, day 16
  Tumor growth inhibition (TGI): 66.26%
[8]; 5 mpk, day 20
  Tumor growth inhibition (TGI): 78.22%
[8]; 5 mpk, day 23
  Tumor growth inhibition (TGI): 83.03%
[8]; 5 mpk, day 27
  Tumor growth inhibition (TGI): 90.91%
[8]; 5 mpk, day 30
  Tumor growth inhibition (TGI): 91.62%
[8]; 5 mpk, day 34
  Tumor growth inhibition (TGI): 94.93%
[8]; 5 mpk, day 37
  Tumor growth inhibition (TGI): 93.89%
[8]; 5 mpk, day 41
  Tumor growth inhibition (TGI): 95.15%
[8]; 5 mpk, day 44
  Tumor growth inhibition (TGI): 94.2%
[8]; 5 mpk, day 48
  Tumor growth inhibition (TGI): 94.68%
[8]; 5 mpk, day 51
  Tumor growth inhibition (TGI): 91.52%
[8]; 10 mpk
  tumor inhibition effect relative to 99961.1-MMAE: comparable to that of 99961.1-MMAE molecule
[8]; 10 mpk, day 9
  Tumor growth inhibition (TGI): 9.34%
[8]; 10 mpk, day 13
  Tumor growth inhibition (TGI): 70.29%
[8]; 10 mpk, day 16
  Tumor growth inhibition (TGI): 85.24%
[8]; 10 mpk, day 20
  Tumor growth inhibition (TGI): 93.39%
[8]; 10 mpk, day 23
  Tumor growth inhibition (TGI): 96.64%
[8]; 10 mpk, day 27
  Tumor growth inhibition (TGI): 98.1%
[8]; 10 mpk, day 30
  Tumor growth inhibition (TGI): 98.59%
[8]; 10 mpk, day 34
  Tumor growth inhibition (TGI): 98.9%
[8]; 10 mpk, day 37
  Tumor growth inhibition (TGI): 99.04%
[8]; 10 mpk, day 41
  Tumor growth inhibition (TGI): 99.11%
[8]; 10 mpk, day 44
  Tumor growth inhibition (TGI): 99.31%
[8]; 10 mpk, day 48
  Tumor growth inhibition (TGI): 99.48%
[8]; 10 mpk, day 51
  Tumor growth inhibition (TGI): 99.31%
[9]; 5 mpk, day 21
  Tumor growth inhibition (TGI): 24.01%
[9]; 5 mpk, day 25
  Tumor growth inhibition (TGI): 50.35%
[9]; 5 mpk, day 28
  Tumor growth inhibition (TGI): 67.87%
[9]; 5 mpk, day 32
  Tumor growth inhibition (TGI): 79.37%
[9]; 5 mpk, day 35
  Tumor growth inhibition (TGI): 85.76%
[9]; 5 mpk, day 39
  Tumor growth inhibition (TGI): 89.98%
[9]; 5 mpk, day 42
  Tumor growth inhibition (TGI): 90.53%
[9]; 5 mpk, day 46
  Tumor growth inhibition (TGI): 88.81%
[9]; 5 mpk, day 49
  Tumor growth inhibition (TGI): 86.62%
[9]; 5 mpk, day 53
  Tumor growth inhibition (TGI): 58.88%
[9]; 5 mpk, day 56
  Tumor growth inhibition (TGI): 79.79%
[9]; 10 mpk, day 21
  Tumor growth inhibition (TGI): 29.51%
[9]; 10 mpk, day 25
  Tumor growth inhibition (TGI): 59.33%
[9]; 10 mpk, day 28
  Tumor growth inhibition (TGI): 74.57%
[9]; 10 mpk, day 32
  Tumor growth inhibition (TGI): 87.43%
[9]; 10 mpk, day 35
  Tumor growth inhibition (TGI): 91.32%
[9]; 10 mpk, day 39
  Tumor growth inhibition (TGI): 94.55%
[9]; 10 mpk, day 42
  Tumor growth inhibition (TGI): 95.56%
[9]; 10 mpk, day 46
  Tumor growth inhibition (TGI): 95.87%
[9]; 10 mpk, day 49
  Tumor growth inhibition (TGI): 96.03%
[9]; 10 mpk, day 53
  Tumor growth inhibition (TGI): 91.85%
[9]; 10 mpk, day 56
  Tumor growth inhibition (TGI): 96.60%
[9]; low-dose condition (5 mpk)
  anti-tumor effect relative to positive control ADC: superior to that of the positive control ADC
[10]; 5 mg/kg QW*3
  tumor inhibition effect relative to 99961.1-MMAE: superior
[10]; 5 mg/kg QW*3, day 25 after administration
  mice achieving CR: 4/6
[10]; 5 mpk, QW*3, day 35
  Tumor growth inhibition (TGI): 38.37%
[10]; 5 mpk, QW*3, day 38
  Tumor growth inhibition (TGI): 52.31%
[10]; 5 mpk, QW*3, day 42
  Tumor growth inhibition (TGI): 74.83%
[10]; 5 mpk, QW*3, day 45
  Tumor growth inhibition (TGI): 84.77%
[10]; 5 mpk, QW*3, day 49
  Complete remission (CR (%)): 2/6
  Tumor growth inhibition (TGI): 93.52%
[10]; 5 mpk, QW*3, day 51
  Complete remission (CR (%)): 4/6
  Tumor growth inhibition (TGI): 96.83%
[10]; 5 mpk, QW*3, day 56
  Complete remission (CR (%)): 4/6
  Tumor growth inhibition (TGI): 98.02%
[10]; 10 mpk QW*3
  Tumor growth inhibition relative to 99961.1-MMAE: slightly higher
  time at which all mice achieve complete remission (CR): approximately 18 days after administration
[10]; 10 mpk, QW*3, day 35
  Tumor growth inhibition (TGI): 46.53%
[10]; 10 mpk, QW*3, day 38
  Tumor growth inhibition (TGI): 70.18%
[10]; 10 mpk, QW*3, day 42
  Complete remission (CR (%)): 1/6
  Tumor growth inhibition (TGI): 91.94%
[10]; 10 mpk, QW*3, day 45
  Complete remission (CR (%)): 5/6
  Tumor growth inhibition (TGI): 99.44%
[10]; 10 mpk, QW*3, day 49
  Complete remission (CR (%)): 6/6
  Tumor growth inhibition (TGI): 100%
[10]; 10 mpk, QW*3, day 51
  Complete remission (CR (%)): 6/6
  Tumor growth inhibition (TGI): 100%
[10]; 10 mpk, QW*3, day 56
  Complete remission (CR (%)): 6/6
  Tumor growth inhibition (TGI): 100%
[10]; 10 mpk, Single dose, day 35
  Tumor growth inhibition (TGI): 29.08%
[10]; 10 mpk, Single dose, day 38
  Tumor growth inhibition (TGI): 50.62%
[10]; 10 mpk, Single dose, day 42
  Tumor growth inhibition (TGI): 84.41%
[10]; 10 mpk, Single dose, day 45
  Complete remission (CR (%)): 1/3
  Tumor growth inhibition (TGI): 94.13%
[10]; 10 mpk, Single dose, day 49
  Complete remission (CR (%)): 3/3
  Tumor growth inhibition (TGI): 100%
[10]; 10 mpk, Single dose, day 51
  Complete remission (CR (%)): 3/3
  Tumor growth inhibition (TGI): 100%
[10]; 10 mpk, Single dose, day 56
  Complete remission (CR (%)): 3/3
  Tumor growth inhibition (TGI): 100%
[10]; all dose groups of the ADC
  tumor recurrence: not observed
[10]; single dose 10 mg/kg
  time at which all mice achieve CR: ≤ 18 days post-administration
  tumor inhibition effect relative to 99961.1-MMAE: superior tumor inhibition effect
[11]; 2.5(D15)/3.5(D29) mpk, Q2W*2, day 17
  Tumor growth inhibition (TGI): 4.77%
[11]; 2.5(D15)/3.5(D29) mpk, Q2W*2, day 20
  Tumor growth inhibition (TGI): 18.97%
[11]; 2.5(D15)/3.5(D29) mpk, Q2W*2, day 22
  Tumor growth inhibition (TGI): 7.83%
[11]; 2.5(D15)/3.5(D29) mpk, Q2W*2, day 24
  Tumor growth inhibition (TGI): 4.25%
[11]; 2.5(D15)/3.5(D29) mpk, Q2W*2, day 27
  Tumor growth inhibition (TGI): 13.01%
[11]; 2.5(D15)/3.5(D29) mpk, Q2W*2, day 29
  Tumor growth inhibition (TGI): 9.77%
[11]; 2.5(D15)/3.5(D29) mpk, Q2W*2, day 31
  Tumor growth inhibition (TGI): 11.05%
[11]; 2.5(D15)/3.5(D29) mpk, Q2W*2, day 34
  Tumor growth inhibition (TGI): 24.86%
[11]; 2.5(D15)/3.5(D29) mpk, Q2W*2, day 36
  Tumor growth inhibition (TGI): 36.94%
[11]; 2.5(D15)/3.5(D29) mpk, Q2W*2, day 38
  Tumor growth inhibition (TGI): 42.42%
[11]; 2.5(D15)/3.5(D29) mpk, Q2W*2, day 41
  Tumor growth inhibition (TGI): 34.96%
[11]; 2.5 mpk, QW*3, day 17
  Tumor growth inhibition (TGI): 6.14%
[11]; 2.5 mpk, QW*3, day 20
  Tumor growth inhibition (TGI): 13.78%
[11]; 2.5 mpk, QW*3, day 22
  Tumor growth inhibition (TGI): 10.83%
[11]; 2.5 mpk, QW*3, day 24
  Tumor growth inhibition (TGI): 20.13%
[11]; 2.5 mpk, QW*3, day 27
  Tumor growth inhibition (TGI): 40.94%
[11]; 2.5 mpk, QW*3, day 29
  Tumor growth inhibition (TGI): 47.48%
[11]; 2.5 mpk, QW*3, day 31
  Tumor growth inhibition (TGI): 53.56%
[11]; 2.5 mpk, QW*3, day 34
  Tumor growth inhibition (TGI): 58.44%
[11]; 2.5 mpk, QW*3, day 36
  Tumor growth inhibition (TGI): 61.76%
[11]; 2.5 mpk, QW*3, day 38
  Tumor growth inhibition (TGI): 64.21%
[11]; 2.5 mpk, QW*3, day 41
  Tumor growth inhibition (TGI): 60.47%
[11]; 10 mpk QW*3, 23 days after administration
  tumor recurrence: not observed
[11]; 10 mpk single dose, 23 days after administration
  tumor recurrence: no tumor recurrence was observed
[11]; 10 mpk, QW*3, day 17
  Tumor growth inhibition (TGI): 3.63%
[11]; 10 mpk, QW*3, day 20
  Tumor growth inhibition (TGI): 26.96%
[11]; 10 mpk, QW*3, day 22
  Tumor growth inhibition (TGI): 52.36%
[11]; 10 mpk, QW*3, day 24
  Tumor growth inhibition (TGI): 61.53%
[11]; 10 mpk, QW*3, day 27
  Tumor growth inhibition (TGI): 83.08%
[11]; 10 mpk, QW*3, day 29
  Tumor growth inhibition (TGI): 89.03%
[11]; 10 mpk, QW*3, day 31
  Tumor growth inhibition (TGI): 94.30%
[11]; 10 mpk, QW*3, day 34
  Tumor growth inhibition (TGI): 96.02%
[11]; 10 mpk, QW*3, day 36
  Tumor growth inhibition (TGI): 95.68%
[11]; 10 mpk, QW*3, day 38
  Tumor growth inhibition (TGI): 96.28%
[11]; 10 mpk, Single dose, day 17
  Tumor growth inhibition (TGI): 6.54%
[11]; 10 mpk, Single dose, day 20
  Tumor growth inhibition (TGI): 28.99%
[11]; 10 mpk, Single dose, day 22
  Tumor growth inhibition (TGI): 45.06%
[11]; 10 mpk, Single dose, day 24
  Tumor growth inhibition (TGI): 59.45%
[11]; 10 mpk, Single dose, day 27
  Tumor growth inhibition (TGI): 74.96%
[11]; 10 mpk, Single dose, day 29
  Tumor growth inhibition (TGI): 86.03%
[11]; 10 mpk, Single dose, day 31
  Tumor growth inhibition (TGI): 90.48%
[11]; 10 mpk, Single dose, day 34
  Tumor growth inhibition (TGI): 89.15%
[11]; 10 mpk, Single dose, day 36
  Tumor growth inhibition (TGI): 86.44%
[11]; 10 mpk, Single dose, day 38
  Tumor growth inhibition (TGI): 84.62%
[11]; 10 mpk, Single dose, day 41
  Tumor growth inhibition (TGI): 79.24%
